# Laboratory results taken from the supplement of paper PMC12217912.
# Some of the results follow. The full chains were built here from the parent and the listed change. Inactive controls read about 0.05.
# B1: TEV protease; numbered along this chain (parent)
# chain: MGESLFKGPRDYNPISSSICHLTNESDGHTTSLYGIGFGPFIITNKHLFRRNNGTLVVQSLHGVFKVKDTTTLQQHLVDGRDMIIIRMPKDFPPFPQKLKFREPQREERICLVTTNFQTKSMSSMVSDTSCTFPSGDGIFWKHWIQTKDGQCGSPLVSTRDGFIVGIHSASNFTNTNNYFTSVPKNFMELLTNQEAQQWVSGWRLNADSVLWGGHKVFMVKPEEPFQPVKEATQL
# Variants of: B1
# Experiment: raw area under fraction-flipped curve 0-4 h after induction (AUC4h, not background-subtracted), DNA-recorder readout of cleavage of the substrate (dimensionless); higher = more cleavage of the substrate by the protease variant
# Settings: temperature: 34 °C; time window: 0-4 h after rhamnose induction
# 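Note: Bxb1 expression induced with 0.2% (w/v) L-rhamnose at OD600 near 0.5, cultures sampled hourly, flipped fraction per protease–substrate barcode pair counted by paired-end Illumina sequencing.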
variant,measurement,value
S17L,area with substrate ENLCFQS,0.0773
same,area with substrate ENLDFQS,0.0662
same,area with substrate ENLEFQS,0.0536
same,area with substrate ENLFFQS,0.0843
same,area with substrate ENLHFQS,0.0666
same,area with substrate ENLIFQS,0.101
same,area with substrate ENLKFQS,0.105
same,area with substrate ENLLFQS,0.072
same,area with substrate ENLNFQS,0.051
same,area with substrate ENLPFQS,0.0991
same,area with substrate ENLQFQS,0.0627
same,area with substrate ENLRFQS,0.0698
same,area with substrate ENLSFQS,0.0739
same,area with substrate ENLTFQS,0.0679
same,area with substrate ENLVFQS,0.0987
same,area with substrate ENLWFQS,0.0684
S18L,area with substrate ENLCFQS,0.0733
same,area with substrate ENLDFQS,0.0545
same,area with substrate ENLEFQS,0.0589
same,area with substrate ENLFFQS,0.0821
same,area with substrate ENLGFQS,0.0714
same,area with substrate ENLHFQS,0.0809
same,area with substrate ENLKFQS,0.0858
same,area with substrate ENLLFQS,0.0666
same,area with substrate ENLMFQS,0.0508
same,area with substrate ENLNFQS,0.0591
same,area with substrate ENLPFQS,0.0794
same,area with substrate ENLQFQS,0.0532
same,area with substrate ENLRFQS,0.0695
same,area with substrate ENLSFQS,0.066
same,area with substrate ENLTFQS,0.0701
same,area with substrate ENLVFQS,0.0903
I19E,area with substrate ENLCFQS,0.0438
same,area with substrate ENLDFQS,0.0354
same,area with substrate ENLEFQS,0.0482
same,area with substrate ENLFFQS,0.0573
same,area with substrate ENLHFQS,0.0382
same,area with substrate ENLIFQS,0.0454
same,area with substrate ENLKFQS,0.062
same,area with substrate ENLLFQS,0.0462
same,area with substrate ENLNFQS,0.0272
same,area with substrate ENLQFQS,0.0454
same,area with substrate ENLSFQS,0.0531
same,area with substrate ENLWFQS,0.0436
C20H,area with substrate ENLCFQS,0.0431
same,area with substrate ENLDFQS,0.0565
same,area with substrate ENLEFQS,0.0416
same,area with substrate ENLFFQS,0.0625
same,area with substrate ENLGFQS,0.0572
same,area with substrate ENLHFQS,0.0548
same,area with substrate ENLIFQS,0.0677
same,area with substrate ENLKFQS,0.0697
same,area with substrate ENLLFQS,0.048
same,area with substrate ENLMFQS,0.0648
same,area with substrate ENLNFQS,0.0533
same,area with substrate ENLPFQS,0.0348
same,area with substrate ENLQFQS,0.056
same,area with substrate ENLRFQS,0.0438
same,area with substrate ENLSFQS,0.0419
same,area with substrate ENLVFQS,0.0466
same,area with substrate ENLWFQS,0.0376
L22R,area with substrate ENLCFQS,0.0409
same,area with substrate ENLDFQS,0.0445
same,area with substrate ENLEFQS,0.0398
same,area with substrate ENLFFQS,0.0518
same,area with substrate ENLGFQS,0.0597
same,area with substrate ENLHFQS,0.0508
same,area with substrate ENLIFQS,0.0657
same,area with substrate ENLKFQS,0.0569
same,area with substrate ENLNFQS,0.0495
same,area with substrate ENLPFQS,0.0459
same,area with substrate ENLQFQS,0.0434
same,area with substrate ENLRFQS,0.0461
same,area with substrate ENLSFQS,0.0525
same,area with substrate ENLWFQS,0.0437
L22T,area with substrate ENLCFQS,0.0431
same,area with substrate ENLDFQS,0.0594
same,area with substrate ENLEFQS,0.0525
same,area with substrate ENLFFQS,0.0552
same,area with substrate ENLGFQS,0.0549
same,area with substrate ENLHFQS,0.0364
same,area with substrate ENLIFQS,0.0608
same,area with substrate ENLKFQS,0.0504
same,area with substrate ENLLFQS,0.0447
same,area with substrate ENLNFQS,0.0452
same,area with substrate ENLPFQS,0.0408
same,area with substrate ENLQFQS,0.0494
same,area with substrate ENLRFQS,0.045
same,area with substrate ENLSFQS,0.0536
same,area with substrate ENLTFQS,0.0654
same,area with substrate ENLWFQS,0.0504
T30G,area with substrate ENLCFQS,0.0649
same,area with substrate ENLDFQS,0.0508
same,area with substrate ENLFFQS,0.0733
same,area with substrate ENLGFQS,0.0813
same,area with substrate ENLHFQS,0.054
same,area with substrate ENLIFQS,0.0786
same,area with substrate ENLKFQS,0.0691
same,area with substrate ENLLFQS,0.0703
same,area with substrate ENLMFQS,0.0512
same,area with substrate ENLNFQS,0.0603
same,area with substrate ENLPFQS,0.0568
same,area with substrate ENLQFQS,0.0522
same,area with substrate ENLSFQS,0.0572
same,area with substrate ENLVFQS,0.0698
same,area with substrate ENLWFQS,0.0693
Y34F,area with substrate ENLCFQS,0.0613
same,area with substrate ENLDFQS,0.0568
same,area with substrate ENLEFQS,0.0545
same,area with substrate ENLFFQS,0.0759
same,area with substrate ENLHFQS,0.0676
same,area with substrate ENLKFQS,0.0784
same,area with substrate ENLMFQS,0.0802
same,area with substrate ENLNFQS,0.0777
same,area with substrate ENLPFQS,0.0581
same,area with substrate ENLSFQS,0.0631
same,area with substrate ENLTFQS,0.127
same,area with substrate ENLVFQS,0.0796
same,area with substrate ENLWFQS,0.0776
Y34I,area with substrate ENLCFQS,0.0611
same,area with substrate ENLDFQS,0.0435
same,area with substrate ENLFFQS,0.0775
same,area with substrate ENLNFQS,0.0768
same,area with substrate ENLPFQS,0.0642
same,area with substrate ENLSFQS,0.0635
G35P,area with substrate ENLCFQS,0.0483
same,area with substrate ENLDFQS,0.0351
same,area with substrate ENLEFQS,0.0505
same,area with substrate ENLKFQS,0.0453
same,area with substrate ENLNFQS,0.0426
same,area with substrate ENLRFQS,0.0603
I36L,area with substrate ENLCFQS,0.0772
same,area with substrate ENLDFQS,0.0577
same,area with substrate ENLFFQS,0.08
same,area with substrate ENLHFQS,0.055
same,area with substrate ENLIFQS,0.0904
same,area with substrate ENLKFQS,0.0768
same,area with substrate ENLLFQS,0.0682
same,area with substrate ENLNFQS,0.0527
same,area with substrate ENLPFQS,0.0652
same,area with substrate ENLSFQS,0.0588
same,area with substrate ENLWFQS,0.0797
I42H,area with substrate ENLCFQS,0.0303
same,area with substrate ENLDFQS,0.05
same,area with substrate ENLFFQS,0.0587
same,area with substrate ENLGFQS,0.044
same,area with substrate ENLHFQS,0.0609
same,area with substrate ENLKFQS,0.0439
same,area with substrate ENLLFQS,0.0531
same,area with substrate ENLMFQS,0.061
same,area with substrate ENLNFQS,0.057
same,area with substrate ENLPFQS,0.0451
same,area with substrate ENLRFQS,0.0198
same,area with substrate ENLSFQS,0.0556
same,area with substrate ENLVFQS,0.0279
same,area with substrate ENLWFQS,0.0591
K46H,area with substrate ENLCFQS,0.062
same,area with substrate ENLDFQS,0.0677
same,area with substrate ENLEFQS,0.0545
same,area with substrate ENLGFQS,0.0625
same,area with substrate ENLHFQS,0.0712
same,area with substrate ENLIFQS,0.0587
same,area with substrate ENLKFQS,0.0672
same,area with substrate ENLLFQS,0.0589
same,area with substrate ENLNFQS,0.0625
same,area with substrate ENLPFQS,0.0598
same,area with substrate ENLQFQS,0.0565
same,area with substrate ENLRFQS,0.0435
same,area with substrate ENLSFQS,0.0627
same,area with substrate ENLVFQS,0.061
same,area with substrate ENLWFQS,0.0484
